This note sets out measurements from US20020032228A1 (priority 2000, published 2002).

The conditions of data set [1]: pH 5.5.

“prostaglandin E2-histidine [PGE2-histidine]”: the toxicity for cells entry in the data set with cells was “not toxic for cells”.
Turning to `CCCCCC(O)/C=C/[C@H]1C(n2ccnc2)CC(=O)[C@H]1C/C=C\CCCC(=O)O` (stereo partly drawn) [PGE2-imidazole, 11-deoxy-11-imidazolyl-PGE2], the “time the adduct appeared stable” value in data set [1] is “approximately 12 hours”. Moreover, in the data set on cells, the toxicity for cells result is listed as “not toxic for cells”.
